From the supplement of paper PMC4967469
The IC50 comes from the fitted curve, where viability falls to half of the control; a limit (>, <) means that the fit lies beyond the doses tested. For AUC the same curve is integrated over the 256-fold range of doses and scaled to a fraction; it is 1 without any effect and falls as sensitivity rises. For some assays here: An inferred top dose was calculated from the reported fits.

How the values were obtained:
Assay in all cases: Viability of human cancer cell lines after 72 h of drug (GDSC screen)
Dabrafenib = compound: CC(C)(C)c1nc(-c2cccc(NS(=O)(=O)c3c(F)cccc3F)c2F)c(-c2ccnc(N)n2)s1 [Dabrafenib]; settings: top dose 10 µM
Procedure: (§1)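 Human cancer cell lines in 384-well plates, medium with 10% serum, drug for 72 h over a 256-fold dose range (nine 2-fold or five 4-fold steps up to the top dose). Adherent lines were fixed and stained with the nucleic acid dye Syto60, suspension lines read with resazurin; signal relative to control wells, capped at 0 and 100%. One two-parameter sigmoid per drug and line, fitted in a mixed model over all curves with the slope shared within a line.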

SN-38 = compound: CCc1c2c(nc3ccc(O)cc13)-c1cc3c(c(=O)n1C2)COC(=O)[C@]3(O)CC [SN-38]; settings: top dose 0.05 µM; top dose inferred
Procedure: as §1

Methotrexate = compound: CN(Cc1cnc2nc(N)nc(N)c2n1)c1ccc(C(=O)N[C@@H](CCC(=O)O)C(=O)O)cc1 [Methotrexate]; settings: top dose 0.2 µM
Procedure: as §1

Axitinib = compound: CNC(=O)c1ccccc1Sc1ccc2c(/C=C/c3ccccn3)n[nH]c2c1 [Axitinib]; settings: top dose 2 µM
Procedure: as §1

Vorinostat = compound: O=C(CCCCCCC(=O)Nc1ccccc1)NO [Vorinostat]; settings: top dose 10 µM
Procedure: as §1

Row | Cell Line | AUC (Dabrafenib) | IC50 (Dabrafenib) [µM] | AUC (SN-38) | IC50 (SN-38) [nM] | AUC (Methotrexate) | IC50 (Methotrexate) [nM] | AUC (Axitinib) | IC50 (Axitinib) [nM] | AUC (Vorinostat) | IC50 (Vorinostat) [nM]
1 | BE-13 (lymphoblastic leukaemia, suspension) | 0.683 | 1.96 | 0.65 | 7.89 | 0.631 | 28 | 0.748 | 607 | 0.484 | 567
2 | HCC-366 (non-small cell lung carcinoma, adherent) | 0.983 | > 10 | 0.842 | 37.1 | 0.951 | > 200 | 0.969 | > 2000 | 0.803 | 5210
3 | G-402 (soft tissue, adherent) | 0.824 | 8.83 | 0.597 | 6.32 | 0.977 | > 200 | 0.488 | 114 | 0.712 | 3070
4 | EFM-192A (breast, adherent) | 0.951 | > 10 | 0.943 | > 50 | 0.923 | > 200 | 0.984 | > 2000 | 0.54 | 813
5 | OCI-LY-19 (B-cell lymphoma, suspension) | 0.586 | 1.05 | 0.539 | 3.95 | 0.81 | 95.2 | 0.925 | > 2000 | 0.673 | 1820
6 | WIL2-NS (lymphoid neoplasm, suspension) | 0.99 | > 10 | 0.413 | 1.89 | 0.675 | 34.6 | 0.977 | > 2000 | 0.622 | 1260
7 | JHH-4 (liver, adherent) | 0.899 | > 10 | 0.7 | 11.4 | 0.985 | > 200 | 0.977 | > 2000 | 0.792 | 4500
8 | DJM-1 (skin, adherent) | 0.985 | > 10 | 0.478 | 2.73 | 0.988 | > 200 | 0.979 | > 2000 | 0.765 | 3630
9 | C32 (melanoma, adherent) | 0.08 | < 0.0391 | 0.561 | 4.64 | 0.965 | > 200 | 0.878 | > 2000 | 0.905 | > 10000
10 | OVISE (ovary, adherent) | 0.958 | > 10 | 0.825 | 44.1 | 0.815 | 158 | 0.969 | > 2000 | 0.507 | 656
11 | NCI-H647 (non-small cell lung carcinoma, adherent) | 0.738 | 3.11 | 0.578 | 5.15 | 0.983 | > 200 | 0.959 | > 2000 | 0.871 | > 10000
12 | U-118-MG (glioma, adherent) | 0.945 | > 10 | 0.563 | 4.77 | 0.97 | > 200 | 0.955 | > 2000 | 0.886 | > 10000
13 | SIMA (neuroblastoma, adherent) | 0.984 | > 10 | 0.488 | 2.89 | 0.892 | > 200 | 0.919 | > 2000 | 0.675 | 2060
14 | HDQ-P1 (breast, adherent) | 0.972 | > 10 | 0.896 | > 50 | 0.951 | > 200 | 0.985 | > 2000 | 0.887 | > 10000
15 | NB12 (neuroblastoma, adherent) | 0.784 | 5.87 | 0.777 | 27.5 | 0.979 | > 200 | 0.953 | > 2000 | 0.676 | 2310
16 | CP50-MEL-B (melanoma, adherent) | 0.079 | < 0.0391 | 0.886 | > 50 | 0.986 | > 200 | 0.963 | > 2000 | 0.872 | 9340
17 | NCI-SNU-1 (stomach, suspension) | 0.956 | > 10 | 0.84 | 36.3 | 0.927 | > 200 | 0.982 | > 2000 | 0.95 | > 10000
18 | SISO (cervix, adherent) | 0.935 | > 10 | 0.472 | 2.63 | 0.924 | > 200 | 0.954 | > 2000 | 0.656 | 1660
19 | SK-GT-2 (stomach, adherent) | 0.852 | 8.4 | 0.888 | > 50 | 0.794 | 97.9 | 0.924 | > 2000 | 0.581 | 1060
20 | FTC-133 (thyroid, adherent) | 0.969 | > 10 | 0.642 | 8.03 | 0.958 | > 200 | 0.979 | > 2000 | 0.806 | 5720
21 | SKG-IIIa (cervix, adherent) | 0.972 | > 10 | 0.629 | 8.03 | 0.97 | > 200 | 0.939 | > 2000 | 0.625 | 1560
22 | NCI-SNU-16 (stomach, suspension) | 0.979 | > 10 | 0.844 | 29.8 | 0.946 | > 200 | 0.817 | 956 | 0.692 | 2000
23 | KP-2 (pancreas, adherent) | 0.934 | > 10 | 0.865 | 50 | 0.963 | > 200 | 0.986 | > 2000 | 0.85 | 8520
24 | NY (osteosarcoma, adherent) | 0.982 | > 10 | 0.648 | 7.96 | 0.835 | 130 | 0.951 | > 2000 | 0.764 | 3590
25 | HCC2157 (breast, suspension) | 0.983 | > 10 | 0.967 | > 50 | 0.971 | > 200 | 0.906 | > 2000 | 0.519 | 704
26 | JJN-3 (haematopoietic neoplasm, suspension) | 0.908 | 9.44 | 0.884 | 37.2 | 0.963 | > 200 | 0.947 | > 2000 | 0.519 | 698
